Experimental data published in the supplement of paper PMC12217912.
This is one part of the list. Sequences were assembled here from the parent chain. Inactive controls read about 0.05.

B1: TEV protease; numbered along this chain (parent)
chain: MGESLFKGPRDYNPISSSICHLTNESDGHTTSLYGIGFGPFIITNKHLFRRNNGTLVVQSLHGVFKVKDTTTLQQHLVDGRDMIIIRMPKDFPPFPQKLKFREPQREERICLVTTNFQTKSMSSMVSDTSCTFPSGDGIFWKHWIQTKDGQCGSPLVSTRDGFIVGIHSASNFTNTNNYFTSVPKNFMELLTNQEAQQWVSGWRLNADSVLWGGHKVFMVKPEEPFQPVKEATQL

Variants of: B1
Experiment: raw area under fraction-flipped curve 0-4 h after induction (AUC4h, not background-subtracted), DNA-recorder readout of cleavage of the substrate (dimensionless); higher = more cleavage of the substrate by the protease variant
Details: temperature: 34 °C; time window: 0-4 h after rhamnose induction
Protocol: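 In vivo DNA recorder in E. coli TOP10(DE3) ΔrhaA at 34 °C. Each TEVp single-site mutant (parent TEVp 0) is paired with a single-site variant of the 7-mer TEVs (canonical ENLYFQ|S). The substrate sits between flexible linkers in a Bxb1-sfGFP-TEVs-SsrA fusion, so cleavage stabilises Bxb1 and speeds flipping of a recombination array, read by NGS. The value is the raw area under the fraction-flipped curve over 0-4 h after rhamnose induction (AUC4h), with ≥20 reads per time point. It is not background-subtracted; inactive controls average about 0.047.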
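Further: Bxb1 expression induced with 0.2% (w/v) L-rhamnose at OD600 near 0.5, cultures sampled hourly, flipped fraction per protease–substrate barcode pair counted by paired-end Illumina sequencing.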

Variant | area with substrate ENLYFAS | area with substrate ENLYFCS | area with substrate ENLYFES | area with substrate ENLYFIS | area with substrate ENLYFKS | area with substrate ENLYFMS | area with substrate ENLYFNS | area with substrate ENLYFPS | area with substrate ENLYFVS | area with substrate ENLYFWS | area with substrate ENLYFDS | area with substrate ENLYFHS | area with substrate ENLYFRS | area with substrate ENLYFTS | area with substrate ENLYFFS | area with substrate ENLYFSS | area with substrate ENLYFYS | area with substrate ENLYFGS | area with substrate ENLYFLS
A232V | 0.0607 | 0.0736 | 0.0767 | 0.0503 | 0.061 | 0.0765 | 0.0697 | 0.0555 | 0.0575 | 0.0631 |  |  |  |  |  |  |  |  | 
A232W | 0.047 | 0.0849 |  | 0.0491 |  | 0.066 | 0.0576 |  |  | 0.0601 | 0.0638 | 0.0446 | 0.0423 | 0.0589 |  |  |  |  | 
A232K | 0.0546 | 0.05 | 0.0711 | 0.0626 | 0.0712 |  | 0.0505 | 0.0526 | 0.06 | 0.0668 |  | 0.0791 |  |  | 0.0731 | 0.0404 | 0.0104 |  | 
F226C | 0.0553 | 0.0713 | 0.0745 | 0.0559 | 0.0474 | 0.073 |  | 0.0559 | 0.0488 | 0.0478 | 0.0526 |  | 0.0613 | 0.0513 |  |  | 0.0632 | 0.059 | 
P222H | 0.0592 | 0.0544 | 0.0626 | 0.0589 | 0.0739 | 0.0593 |  | 0.0651 |  | 0.0606 | 0.0655 | 0.0541 |  | 0.063 | 0.066 |  |  |  | 0.0592
Q197W | 0.064 | 0.0586 |  | 0.0532 | 0.0623 | 0.0569 | 0.0458 | 0.0648 | 0.0633 | 0.0534 | 0.054 |  |  | 0.0528 | 0.0667 | 0.0445 |  | 0.062 | 
N24Y |  | 0.0561 | 0.0704 | 0.0635 | 0.0622 | 0.0767 | 0.0515 | 0.052 |  | 0.058 |  |  | 0.058 |  |  | 0.0672 | 0.0552 |  | 0.0557
E224A | 0.0635 | 0.0636 | 0.0574 | 0.0628 |  | 0.0695 | 0.0643 | 0.0611 | 0.0553 | 0.058 |  | 0.0552 | 0.0565 | 0.0622 | 0.0705 | 0.0566 | 0.0554 |  | 0.0511
E224V | 0.0646 | 0.057 | 0.0591 | 0.058 | 0.0814 | 0.0774 |  | 0.052 | 0.071 | 0.0553 | 0.0594 |  | 0.053 |  | 0.0649 |  |  | 0.0607 | 
E224C | 0.0723 |  | 0.0627 | 0.0534 | 0.0604 | 0.04 | 0.0693 | 0.0604 |  | 0.0616 | 0.0385 |  |  | 0.0442 | 0.0655 |  |  |  | 0.0479
E224S | 0.0588 |  | 0.0645 | 0.054 |  |  | 0.0574 | 0.0544 |  | 0.051 | 0.0615 | 0.0707 | 0.0504 | 0.0483 | 0.0655 | 0.0779 |  |  | 0.0643
E224W | 0.0522 | 0.0374 | 0.0722 | 0.0588 | 0.0611 | 0.0616 | 0.0554 | 0.0583 |  | 0.0614 | 0.0544 | 0.0581 | 0.0541 | 0.069 | 0.0648 | 0.0608 | 0.0577 | 0.0352 | 0.0675
E224N | 0.0425 |  | 0.0524 | 0.0739 | 0.0613 | 0.066 | 0.0651 | 0.0799 |  | 0.0591 | 0.047 | 0.0582 | 0.058 | 0.0692 | 0.0783 | 0.06 | 0.0428 | 0.0543 | 0.0651
G8P |  | 0.0736 |  | 0.0489 |  | 0.0658 |  |  |  |  | 0.03 | 0.0582 | 0.0708 | 0.0591 | 0.053 |  |  | 0.0694 | 
G8S |  | 0.0502 |  | 0.0481 | 0.0698 | 0.0669 |  | 0.0574 | 0.0668 |  |  |  |  |  |  |  |  | 0.0592 | 
G8F |  | 0.0665 |  |  |  | 0.0691 |  | 0.0584 | 0.0855 |  |  |  |  |  | 0.0602 |  | 0.0709 |  | 
P184S | 0.0628 | 0.0618 | 0.0618 | 0.0518 | 0.0673 | 0.0605 |  | 0.0728 |  | 0.0529 | 0.0549 | 0.0611 | 0.0535 | 0.054 | 0.0662 | 0.0601 | 0.0537 | 0.0651 | 
P184N | 0.0277 | 0.0362 | 0.0557 | 0.0566 | 0.0579 | 0.0595 | 0.0635 |  |  | 0.0868 | 0.05 | 0.062 | 0.049 | 0.0609 | 0.0508 | 0.0462 |  | 0.0588 | 0.0591
P184I | 0.0504 |  | 0.0617 | 0.0545 | 0.0555 | 0.0557 | 0.0572 | 0.0646 | 0.0327 | 0.043 | 0.0413 | 0.06 | 0.057 | 0.0629 | 0.0706 | 0.0513 | 0.0466 | 0.0635 | 0.0613
P184G | 0.0491 |  | 0.056 | 0.0556 | 0.0526 | 0.0596 |  | 0.0567 | 0.0475 |  | 0.0587 |  |  | 0.0545 | 0.0709 | 0.0949 | 0.0929 | 0.0597 | 0.0672
P184W | 0.0418 |  | 0.056 | 0.049 | 0.059 | 0.0678 | 0.055 | 0.0611 |  | 0.0577 | 0.0465 | 0.0438 | 0.0529 | 0.0762 |  |  | 0.0757 |  | 
K216G | 0.0545 | 0.057 | 0.0634 | 0.0495 | 0.0626 |  | 0.0555 | 0.0494 |  | 0.052 |  | 0.0498 | 0.0445 | 0.0495 | 0.0655 | 0.0287 |  | 0.0661 | 
K216H | 0.0523 | 0.0588 | 0.0645 | 0.0511 |  |  | 0.0569 | 0.0535 | 0.0533 | 0.0533 |  |  |  | 0.0528 | 0.0705 | 0.0586 |  |  | 
K216F | 0.0566 | 0.0551 | 0.0407 | 0.0579 |  | 0.059 | 0.0583 | 0.0541 |  | 0.0552 |  |  | 0.056 |  | 0.0565 |  |  |  | 
K216D | 0.062 |  |  | 0.0735 |  |  |  |  |  | 0.0497 |  |  |  |  |  |  |  |  | 
K216S | 0.0528 |  |  |  |  |  | 0.0679 | 0.0631 | 0.0487 |  |  | 0.0661 |  | 0.0468 |  |  | 0.0774 |  | 
K216R | 0.0506 |  | 0.0646 |  |  |  | 0.0864 |  | 0.0551 |  |  |  |  | 0.0544 |  | 0.0483 |  |  | 
W203A | 0.0543 | 0.0537 | 0.0524 |  |  | 0.0559 | 0.0461 | 0.0687 | 0.0122 |  |  | 0.0503 | 0.0534 |  | 0.0573 | 0.0415 |  |  | 0.0623
S16D |  | 0.0566 | 0.0623 | 0.0569 | 0.0316 | 0.0642 | 0.055 | 0.0616 |  | 0.0563 | 0.0468 | 0.0658 | 0.0315 | 0.066 | 0.0705 | 0.0537 |  |  | 0.0596
